Reference: PMC4654616 (ACS chemical biology, 2015)

Target: urokinase receptor (uPAR) without the GPI anchor (UniProt Q03405, in part)
Assay: SPR

Kd: 25.1 nM
B1: amino-terminal fragment of uPA (uPAATF) (domain or fragment)
chain: not shown
